Consider two molecules from PMC7160206.

Chains of the proteins cited; added tags and fusions are not shown.
UniProt Q9FIJ0: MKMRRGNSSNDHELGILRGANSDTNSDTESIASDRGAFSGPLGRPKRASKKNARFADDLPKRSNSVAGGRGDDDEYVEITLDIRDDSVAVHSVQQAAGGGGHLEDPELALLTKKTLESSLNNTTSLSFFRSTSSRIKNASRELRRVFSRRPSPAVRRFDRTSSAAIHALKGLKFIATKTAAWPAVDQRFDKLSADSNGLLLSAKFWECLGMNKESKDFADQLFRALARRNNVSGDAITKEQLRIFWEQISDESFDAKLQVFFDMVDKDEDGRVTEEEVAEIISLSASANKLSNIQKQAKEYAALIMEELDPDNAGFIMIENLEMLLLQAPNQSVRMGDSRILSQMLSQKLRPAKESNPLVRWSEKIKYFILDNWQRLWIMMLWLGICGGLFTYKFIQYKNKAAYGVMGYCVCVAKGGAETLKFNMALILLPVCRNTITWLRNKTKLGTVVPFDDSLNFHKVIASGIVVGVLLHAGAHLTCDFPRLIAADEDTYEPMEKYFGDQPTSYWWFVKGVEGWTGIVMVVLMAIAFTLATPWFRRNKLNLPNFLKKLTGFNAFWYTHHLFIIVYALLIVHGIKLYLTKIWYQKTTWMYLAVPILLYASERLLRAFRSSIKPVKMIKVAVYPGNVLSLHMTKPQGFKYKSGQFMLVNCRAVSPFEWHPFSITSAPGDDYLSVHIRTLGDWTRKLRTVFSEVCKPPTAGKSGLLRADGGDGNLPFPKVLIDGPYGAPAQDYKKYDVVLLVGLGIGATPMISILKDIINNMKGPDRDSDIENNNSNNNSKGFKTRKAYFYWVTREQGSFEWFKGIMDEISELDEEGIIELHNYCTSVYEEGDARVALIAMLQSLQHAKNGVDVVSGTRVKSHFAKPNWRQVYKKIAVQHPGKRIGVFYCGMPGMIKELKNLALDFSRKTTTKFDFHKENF

These are yes or no findings as the source states them, for the method shown. Binding seen in cells or lysates may run through a third protein. Some binding calls cover weakened binding; strength is not graded here. For some assays here: Where a sequence is shown, tags or fusion partners need not be part of it.

In test [1] the target is native RBOHD (Arabidopsis thaliana (endogenous in Arabidopsis seedlings)) (UniProt Q9FIJ0). Kind of test: co-IP; solubilised (2% IGEPAL) microsomal fractions of 10-day-old Arabidopsis transgenic seedlings; native RBOHD detected with anti-RBOHD; for YFP-PIRE anti-GFP beads, without and with flg22 treatment.
Test [2] concerns the target GFP-RBOHD (Arabidopsis thaliana) (UniProt Q9FIJ0). Description: co-IP; Arabidopsis mesophyll protoplasts of the line 35S::PBL13-3xFLAG/pbl13-2 #8-3 transfected with GFP fusions; anti-GFP (GFP-Trap) immunoprecipitation; IP buffer 50 mM Tris-HCl pH 7.5, 150 mM NaCl, 10% glycerol, 2% IGEPAL; 4 °C.
The target of test [3] is T1, LTI6b-GFP (UniProt Q9ZNS6).
T1 sequence: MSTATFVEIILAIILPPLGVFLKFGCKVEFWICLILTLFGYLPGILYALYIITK
The test is described as above.

For test [4], the target named is T2, YFP-LTI6b-3xFLAG (UniProt Q9ZNS6).
T2 sequence: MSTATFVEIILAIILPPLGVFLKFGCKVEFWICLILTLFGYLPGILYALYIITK
Kind of test: co-IP; transient co-expression in N. benthamiana leaves; GFP-Trap immunoprecipitation of YFP fusions, 4 °C, 2 h; IP buffer 150 mM Tris-HCl pH 7.5, 150 mM NaCl, 10% glycerol, 2% IGEPAL.

In test [5] the target is YFP-RBOHD (Arabidopsis thaliana) (UniProt Q9FIJ0). Described as above.

B1: PBL13-3xFLAG (protein, UniProt F4JZW1 1-494)
chain: MVLCFQDPDNIYSPKKTKKDDGERVITKQKSFLGLSILDISNPSSTTLSEDLSISLAGSDLHVFTQAELRVITQSFSSSNFLGEGGFGPVHKGFIDDKLRPGLKAQPVAVKLLDLDGLQGHREFMTEVMCLGKLKHPNLVKLIGYCCEEAHRLLVYEFMPRGSLESQLFRRCSLPLPWTTRLNIAYEAAKGLQFLHEAEKPIIYRDFKASNILLDSDYTAKLSDFGLAKDGPQGDDTHVSTRVMGTQGYAAPEYIMTGHLTAKSDVYSFGVVLLELLTGRKSVDIARSSRKETLVEWARPMLNDARKLGRIMDPRLEDQYSETGARKAATLAYQCLRYRPKTRPDISTVVSVLQDIKDYKDDIPIGIFTYTVPTKPRREVKETSLQNFDKPRRETKVTSLQNFDKTRREVKDTSLQNFDKTRREVKETSLQNFDKTRREVKETSLQNFDKPRNVSTTDNHQKFRSPAHTARNHRITLRNGYNSPMRNEAGGERY
Consider B1, for which the binding result is “binds” in test [1], “binds” in test [2] and “no binding” in test [3].

B2: PBL13-3xHA (protein, UniProt F4JZW1 1-494)
chain: MVLCFQDPDNIYSPKKTKKDDGERVITKQKSFLGLSILDISNPSSTTLSEDLSISLAGSDLHVFTQAELRVITQSFSSSNFLGEGGFGPVHKGFIDDKLRPGLKAQPVAVKLLDLDGLQGHREFMTEVMCLGKLKHPNLVKLIGYCCEEAHRLLVYEFMPRGSLESQLFRRCSLPLPWTTRLNIAYEAAKGLQFLHEAEKPIIYRDFKASNILLDSDYTAKLSDFGLAKDGPQGDDTHVSTRVMGTQGYAAPEYIMTGHLTAKSDVYSFGVVLLELLTGRKSVDIARSSRKETLVEWARPMLNDARKLGRIMDPRLEDQYSETGARKAATLAYQCLRYRPKTRPDISTVVSVLQDIKDYKDDIPIGIFTYTVPTKPRREVKETSLQNFDKPRRETKVTSLQNFDKTRREVKDTSLQNFDKTRREVKETSLQNFDKTRREVKETSLQNFDKPRNVSTTDNHQKFRSPAHTARNHRITLRNGYNSPMRNEAGGERY
As for B2, the figures for the binding entry in test [4] and in test [5] were “no binding” and “binds”, respectively.
